The list shows a part of the results.
These molecules were tested on T1, C. trachomatis L2/434/Bu expressing GFP (CTL2-GFP). Conditions: total inclusion area; 28.5 h, 10 µM; inhibitor.
T1 construct: L2/434/Bu GFP intracellular growth in HeLa cells
Design: species or system HeLa; C. trachomatis total inclusion area by high-content imaging, normalised to DMSO
Summary of the method: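 High-content imaging followed the bulk GFP/resorufin measurement: fixed, Hoechst-stained cells were scored for GFP inclusions and host nuclei per well. Total inclusion area and count served as growth proxies, nuclei number as the viability proxy. MIC calculation matched the bulk assay.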

In order of falling “% of control remaining” value:
1. CN1CCN(c2ccc(NC(=O)c3ccc(OCc4ccccc4)cc3)cc2)CC1 [CBK266124]  124.603
2. CCOc1ccc(S(=O)(=O)N2CCCCC2)cc1-c1nc(=O)c2c([nH]1)c(C(C)(C)C)nn2C [CBK265119]  122.61
3. Fc1ccc(Cn2nnc(-c3ccncc3)n2)c(Cl)c1 [CBK288534]  121.456
4. CCc1nc2c(OCCOc3ccc(F)cc3)cccn2c1N(C)C(=O)c1ccncc1 [CBK147472]  120.514
5. O=C(C1=C(O)C(=O)N(Cc2cccnc2)C1c1cccc(Oc2ccccc2)c1)c1ccc(Cl)cc1 (centres unmarked) [CBK264698]  113.684
6. CC(C)NC(=O)c1sc2ccccc2c1C1CN(Cc2c[nH]nc2C(C)(C)C)CCO1 (centres unmarked) [CBK285535]  112.14
7. CCOCCN1CCC(C(=O)NC(c2ccc(F)cc2)c2nc(OC)cc(OC)n2)CC1 (centres unmarked) [CBK148087]  109.065
8. O=C(O)c1cc(NC(=O)c2cccc(Oc3ccc([N+](=O)[O-])cc3)c2)cc(C(=O)O)c1 [CBK263528]  105.293
9. Cc1ccc(NC(=O)Cn2nc(C)c([N+](=O)[O-])c2C)cc1Cl [CBK268336]  104.257
10. C[C@H](c1ccccc1)n1c(=O)[nH]c2ncc(-c3cccc(C(=O)NCCN(C)C)c3)nc21 [CBK064204]  104.185
11. Cc1ccc2nc(NC(=O)COc3ccccc3)sc2c1 [CBK287335]  102.234
12. CCOc1ccc(N(Cc2cc3cc(C)ccc3nc2O)C(=O)c2ccccc2OC)cc1 [CBK265427]  101.763
13. COc1cc(F)cc(OC2CCNCC2)c1NC(=O)c1cnccn1 [CBK050296T]  101.455
14. O=C(O)c1ccc(OCCNS(=O)(=O)c2ccc3oc4ccccc4c3c2)cc1 [CBK299797]  99.1341
15. Ic1ccc(NCc2cn3ccccc3n2)cc1 [CBK058563]  98.9303
16. O=C1CCC(=O)N1CCOc1nccnc1N1CCN(Cc2ccc(Cl)cc2)CC1 [CBK084290]  97.3714
17. O=C1CCN([C@H]2C[C@@H](O)[C@@H](CO)O2)C(=O)N1 [CBK201288]  96.5134
18. CCCCOc1nccnc1-c1ccsc1 [CBK106778]  95.9137
19. O=C(c1cccc(Cl)c1)N1CCC(O)(c2cccnc2)CC1 [CBK283553]  95.8738
20. COc1ccc(-c2ccc(/C=N/NC(=O)c3ccncc3)o2)c([N+](=O)[O-])c1 [CBK262156]  94.8273
21. CC(=O)Nc1ccc(Oc2c(F)c(F)c(/C=C/CN3CCOCC3)c(F)c2F)cc1 [CBK269302C]  93.8021
22. COc1ccc(Cn2nc(NC(=O)Nc3ccc(N(C)C)cc3)c3ccccc32)cc1 [CBK048529]  93.5312
23. Brc1ccc(C2(c3nnc(C4CC4)o3)CCOCC2)cc1 [CBK305498]  92.9859
24. COc1ccc(-c2cncc(C3CN(Cc4ccc(C)cc4OC)CCO3)n2)cc1 (centres unmarked) [CBK286100]  90.6805
25. O=c1[nH]c2ccc(NS(=O)(=O)c3ccc4c(c3)OCCCO4)cc2[nH]1 [CBK295315]  90.648
26. O=C(CCCc1ccccn1)N(Cc1ccccn1)C1CCCC1 [CBK282033]  90.1082
27. O=C(Cc1ccccc1)Nc1nc(OCC(F)(F)F)cnc1-c1ccsc1 [CBK145298]  90.056
28. CC1CN(C)C(C)CC1OC(=O)C(c1ccccc1)c1ccccc1 (centres unmarked) [CBK087393]  89.5528
29. CC(C)C(=O)N1CC2(CCN(CCCCC3NC(=O)NC3=O)CC2)c2ccccc21 (centres unmarked) [CBK131471]  89.1791
30. CSc1nsc(SCC(=O)N2CCN(C(c3ccccc3)c3ccccc3)CC2)n1 [CBK268071]  88.3003
31. Cc1cccc(OCc2nnc(SCC(=O)Nc3cccc4ccccc34)o2)c1C [CBK267153]  86.0028
32. O=c1[nH]c2cc3nn[nH]c3cc2[nH]1 [CBK018154]  85.8836
33. COc1cc(-c2nnc(NC(C)=O)o2)cc(OC)c1OC [CBK287698]  85.8427
34. C(=N\c1ccc(-c2nc3ccc(/N=C/c4ccncc4)cc3[nH]2)cc1)/c1ccncc1 [CBK261681]  84.2748
35. CCN(CC)C(=O)CN1CCCN(c2nccc(OCCN3CCOCC3)n2)CC1 [CBK084094]  83.647
36. CCc1cnc(CN(C)C2CCN(Cc3cccc(C(N)=O)c3)C2)o1 (centres unmarked) [CBK305357]  83.2085
37. O=c1[nH]c(=O)c2ccn([C@H]3C[C@@H](O)[C@@H](CO)O3)c2[nH]1 [CBK201331]  82.1034
38. NC(=O)CO[C@@H]1CO[C@H]2[C@@H]1OC[C@@H]2NCc1ccccc1 [CBK289479]  81.0999
39. Cc1onc(-c2ccccc2)c1C(=O)NNC(=S)NC(=O)c1ccc(Cl)cc1 [CBK267493]  80.0065
40. COc1ccc(C(C)c2cc3c(cc2OCC(=O)O)OCO3)cc1 (centres unmarked) [CBK200108]  79.7855
41. Cc1cc2ccccc2n2c(=O)n(CC(=O)N3CCCC3)nc12 [CBK283880]  71.2239
42. Cc1ccccc1C(NC(=O)C1CCN(C(=O)N(C)c2ccccc2)CC1)c1ccccn1 (centres unmarked) [CBK059721]  68.6044
43. CC(=O)c1ccc(C(=O)Nc2nc3c(s2)COc2ccccc2-3)cc1 [CBK287363]  68.4039
44. Cn1ccnc1C1(O)CC2CCC(C1)N2C(=O)c1ccc(F)cc1 (centres unmarked) [CBK284086]  61.4472
45. CC(C)CNc1ccc(-c2cccc(N(C)C)c2)cn1 [CBK037603]  60.467
46. O=c1[nH]nc2c3ccc(Cl)cc3ncn12 [CBK283988]  56.3051
47. Cc1ccccc1CSc1cccc(F)c1 [CBK002913]  52.151
48. COc1cc([C@@]23CC[C@@H](NC(=O)Nc4cc(F)ccc4F)C[C@@H]2N(C)CC3)ccc1OC(F)F [CBK073834]  51.9644
49. CNC(=O)c1nn(CCCc2ccc(OC)cc2)c2ccccc12 [CBK105842]  50.5071
50. Cc1ncccc1C(=O)NC(CC(C)C)c1nnc2n1CCNCC2 (centres unmarked) [CBK307348]  41.6138

Reference: paper PMC12040169 (PLOS Biology, 2025)
